The record followed here is PubChem BioAssay AID488969 (Vanderbilt High Throughput Screening Facility, 2010).

In all, about 110,000 compounds were measured (“z-score”: median about -0.1, highest 2% from about 2 on). Some of the results follow. Active and inactive are the calls of the source.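 Rule for the calls: active = z-score in the third read window above 3 or below -3; inactive = the rest.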

The experiment has as its target Metabotropic glutamate receptor 8 (Rattus norvegicus) (UniProt P70579). In words: rat mGluR8 modulators via GIRK flux, primary screen, cell-based, thallium flux, HTS (AID 488969). The conditions noted are these: HEK293 rat mGluR8, GIRK (G protein-gated inwardly rectifying potassium channel) thallium flux, FluoZin2; at 10 µM; stronger effect = higher value; submaximal glutamate (EC20) added with thallium.
Sequence of UniProt P70579 (P70579 whole entry, looked up): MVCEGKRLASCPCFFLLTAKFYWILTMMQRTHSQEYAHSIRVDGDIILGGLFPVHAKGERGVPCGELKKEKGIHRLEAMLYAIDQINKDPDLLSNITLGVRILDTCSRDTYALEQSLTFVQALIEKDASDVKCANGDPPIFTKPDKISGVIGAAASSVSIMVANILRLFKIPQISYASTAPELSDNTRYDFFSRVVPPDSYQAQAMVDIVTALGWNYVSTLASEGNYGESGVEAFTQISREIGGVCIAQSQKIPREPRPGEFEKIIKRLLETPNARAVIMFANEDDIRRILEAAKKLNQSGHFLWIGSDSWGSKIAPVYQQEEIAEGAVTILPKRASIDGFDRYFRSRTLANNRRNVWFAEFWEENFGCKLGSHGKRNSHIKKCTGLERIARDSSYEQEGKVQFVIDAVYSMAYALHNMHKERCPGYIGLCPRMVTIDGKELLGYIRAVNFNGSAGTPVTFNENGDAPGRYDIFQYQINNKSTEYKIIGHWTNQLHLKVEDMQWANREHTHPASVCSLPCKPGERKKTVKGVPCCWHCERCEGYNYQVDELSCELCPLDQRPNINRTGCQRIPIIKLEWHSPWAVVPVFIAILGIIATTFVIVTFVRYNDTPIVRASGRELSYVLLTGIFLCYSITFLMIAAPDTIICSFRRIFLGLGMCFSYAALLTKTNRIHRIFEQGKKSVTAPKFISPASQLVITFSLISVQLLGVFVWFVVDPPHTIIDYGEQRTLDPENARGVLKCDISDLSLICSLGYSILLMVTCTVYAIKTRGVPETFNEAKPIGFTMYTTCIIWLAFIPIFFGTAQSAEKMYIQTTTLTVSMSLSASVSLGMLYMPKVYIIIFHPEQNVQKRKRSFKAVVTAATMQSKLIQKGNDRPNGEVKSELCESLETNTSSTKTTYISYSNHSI
Consider `CCn1c(NC(=O)c2cccs2)c(-c2cccs2)c(=O)c2ccccc21`, for which the z-score was -0.0463. `COC(=O)C(C)Oc1ccc2c(-c3cccc([N+](=O)[O-])c3)cc(=O)oc2c1` (configuration not stated): the z-score was -0.00225. `COCCOC(=O)C1=C(C)NC(=O)NC1c1c(F)cccc1Cl` (configuration not stated): the z-score is -0.498. As for `CCOP(=O)(OCC)C(O)c1cc(OC)c(OC)c(OC)c1` (configuration not stated), the figure is -0.164; as for `COc1ccc(OC)c2[nH]c(=O)c(CCNS(=O)(=O)c3ccc(Cl)cc3)cc12`, -0.132; as for `O=C(c1ccccc1)N1CCN(c2ncnc3c2cnn3-c2ccccc2)CC1`, -0.162. As for `CC1CCC(NC(=O)C2(C)CCC(=O)N2Cc2cccnc2)CC1` (configuration not stated), the figure is 0.0758. For `CCOC(=O)c1c(NC(=O)COC)sc(C(C)=O)c1C` the value was -0.116; for `CSc1nc(C)cc(OCNC(=O)c2cccs2)n1`, -0.288; for `C/C(=N\NC(=O)c1ccccc1O)c1c(O)cc(C)oc1=O`, -0.19. On to `CCOc1ccc(NC(=O)CN(C)c2nnnn2-c2ccccc2)cc1OCC`, for which the z-score is -0.132.

As for `CC(=O)N/C(=C/c1ccc(Cl)cc1)C(=O)NCCc1c[nH]c2ccccc12`, the z-score is -0.192. As to `CC(C)(C)C(=O)NC1CCN(S(C)(=O)=O)CC1`, the z-score was determined as 0.136. As for `CNC(=O)c1sc(-c2cccnc2)nc1C`, the figure is -0.118; as for `CCC(C)NCCCOc1c(C)cc(C)cc1Br` (configuration not stated), 0.308; as for `Cc1ccc2c(Cl)cc(Cl)c(OCC(=O)NCc3ccco3)c2n1`, active: 3.48. For `Cc1ccc(NC(=O)COC(=O)CCc2c[nH]c3ccccc23)cc1[N+](=O)[O-]` the value was 0.0343; for `O=C(NC(NC(=S)Nc1ccc(Cl)c(Cl)c1)C(Cl)(Cl)Cl)c1ccco1` (configuration not stated), 0.0384; for `CCc1c(C)sc(NC(=O)c2cc(-c3cc(OC)ccc3OC)on2)c1C#N`, -1.03. As for `C[n+]1ccc(/C=C/c2ccc(Br)cc2)cc1`, the figure is 0.0384. Take `O=[N+]([O-])c1cc(-c2nnc(Nc3ccc(O)cc3)c3ccccc23)ccc1N1CCOCC1`: the z-score is -0.799. For `O=S(=O)(c1ccc(Oc2ccc(-c3nnco3)cc2)nc1)N1CCC(Cc2ccccc2)CC1` the value was 0.122. For `Cc1ccc(C(=O)COc2ccccc2-c2ccccc2)cc1` the value was -0.229; for `CC(C)Oc1ccc(N2CC(C(=O)Nc3ccc4c(c3)OCO4)CC2=O)cc1` (configuration not stated), 0.0701. For `CN(C)S(=O)(=O)CC12CCC(CC1=O)C2(C)C` (configuration not stated) the value was -0.67; for `Cc1ccccc1-n1c(Cn2c(=O)sc3ccccc32)nnc1SCC(=O)N1CCOCC1`, -0.558; for `O=C(COC(=O)c1cccs1)c1ccc2ccccc2c1`, -0.443. On to `COc1ccc(C(=O)Nc2ccc(Oc3nc(C)nc4sc(-c5ccccc5)cc34)cc2)cc1OC`, for which the z-score was -0.0336. As for `O=c1c2ccccc2[nH]c(=S)n1CCC1=CCCCC1`, the figure is 0.577. For `COc1ccc(C2C(C(=O)c3sc(C)nc3C)=C(O)C(=O)N2CCN2CCOCC2)cc1` (configuration not stated) the value was 1.

`Cc1cc(/C=N/n2cnnc2)c(C)n1-c1cccc(Cl)c1`: the z-score amounted to 0.213. Regarding `COc1ccccc1N1CCN(Cc2ccc(OC)c3ccccc23)CC1`, the z-score was -0.309. Take `NNC(=O)c1ccc(COc2ccc3c(c2)CCC3)o1`: the z-score was -0.212.

For `CCOC(=O)C1CCCN(C(=O)c2ccc(CS(=O)(=O)Cc3ccccc3C)o2)C1` (configuration not stated), the z-score was found to be 0.059. As for `CCC(=O)Nc1cc(-c2nnc(OC)c3ccccc23)ccc1N1CCOCC1`, the figure is -0.0672; as for `COc1ccc(CNC(=O)COC(=O)c2cccnc2Nc2cccc(C(F)(F)F)c2)cc1`, 0.199; as for `COc1cccc(C(=O)CN2CCN(S(=O)(=O)c3cccc([N+](=O)[O-])c3)CC2)c1`, -0.00706.

As to `Cc1ccc(NC(=O)CCN2CCc3ccccc3C2)cc1`, the z-score turned out to be 0.0332. As for `CN(Cc1ccccc1)Cc1nc2c([nH]1)c(=O)n(C)c(=O)n2C`, the figure is 1.55; as for `C=C(C)CNC(=S)N/N=C(\C)c1ccc(OC)cc1`, -1.56.

`CCCOC(=O)NC1CCS(=O)(=O)C1` (configuration not stated): the z-score stood at 0.764.

`CC1(C)CC2CC(C)(CN2C(=O)COC(=O)Cn2[nH]c(=O)c3ccccc3c2=O)C1` (configuration not stated) yielded a z-score of 0.177. As for `O=C(CCc1ccccc1)Nc1nnc(-c2ccc3c(c2)CCCC3)o1`, the figure is -0.145; as for `COC(=O)c1ccc(NC(=O)C2CCCN2S(=O)(=O)c2ccc(F)cc2)cc1` (configuration not stated), -0.134; as for `CCC(=O)Nc1nc(C)c(C(=O)NC2CCCCC2)s1`, -0.247. Regarding `O=C(c1ccco1)[C@@H]1[C@@H]2C(=O)N(c3ccc(F)cc3)C(=O)[C@@H]2C2c3ccccc3C=CN21` (some centres not stated), the z-score is -0.228.

Take `O=C1CC(c2cccs2)CC(O)=C1C=NCCN1CCNCC1` (configuration not stated): the z-score was -0.472. In turn, `COC(=O)N/N=C/c1cn(CC(C)COc2ccccc2)c2ccccc12` (configuration not stated) gave a z-score of 0.0657.

With `CC(C)(C)S(=O)(=O)c1cnc2c(-c3ccc(Cl)cc3)cnn2c1N`, the z-score is -0.395. `Cc1ccc(OCc2nnc(SCc3cc(=O)[nH]c4ccccc34)o2)cc1`: the z-score was -0.236. For `O=C(Cn1c(=O)oc2cc(S(=O)(=O)N3CCCC3)ccc21)NCc1ccc(F)cc1` the value was -0.0122; for `CCOC(=O)c1[nH]c(C)c(C(=O)Nc2ccc3c(c2)OCCO3)c1C`, -0.196. Regarding `Cc1ccc(C(=O)CNc2ccc(C)c(Cl)c2)cc1`, the z-score was -0.129.

`CCN(CC)c1ccc(NC(=O)CCCCCN2C(=O)c3ccccc3C2=O)cc1`: the z-score is -0.712. For `COC(=O)c1cc(OC)c(OC)cc1NC(=O)Cn1nnc(-c2ccccc2Cl)n1` the value was -0.0538.

Turning to `CCCNC(=O)CSc1nnc(-c2ccccc2Br)n1-c1cccc(C(F)(F)F)c1`, the z-score is -0.103. For `CCCn1c(C(O)c2ccc3c(c2)OCO3)nc2ccccc21` (configuration not stated) the value was -1.87; for `Cc1cc(-c2cccs2)c2c(n1)sc1c(=O)[nH]c(=O)[nH]c12`, -0.325; for `O=C(CSc1nc(-c2ccccc2)cc(=O)[nH]1)N1CCOCC1`, -0.697.

For `CCCOC(=O)c1ccc(-c2ccc(C=O)o2)cc1`, the z-score is -0.605. Consider `C/C(=C\C(=O)c1ccc(C)cc1)Nc1ccc(N2CCOCC2)cc1`, for which the z-score was -0.391.

In turn, `CCN(CC)CCn1c(=N)n(CCOc2ccccc2)c2ccccc21` came in with a z-score of 0.928. As for `O=C(Nn1c(-c2ccc(Cl)cc2)nc2ccccc2c1=O)c1cccnc1Cl`, the figure is -0.0234; as for `O=C(N1CCCCCC1)N1CCN(S(=O)(=O)N2CCOCC2)CC1`, 0.451; as for `O=C(NCCc1ccccc1)c1ccc(NC2=NC3CS(=O)(=O)CC3S2)cc1` (configuration not stated), 0.062. As for `Cc1cccc(-n2c(=O)c(C#N)cc3c(=O)n4ccccc4nc32)c1`, the figure is 0.441; as for `O=C(Cn1cnc([N+](=O)[O-])n1)N/N=C/c1ccc2ccccc2c1`, 1.94. Turning to `O=C(Nc1sc2c(c1C(=O)O)CCCCC2)c1ccco1`, the z-score is -0.14. For `CC(C)NC(=O)NC(=O)COc1c(F)c(F)cc(F)c1F` the value was -0.224; for `CCC(CO)NCc1ccc(OC2CCCC2)cc1` (configuration not stated), 0.112. For `COc1ccc(CC(CC(=O)O)C(=O)Nc2ccc(OC)cc2)cc1` (configuration not stated) the value was -0.208. As for `Cc1nnc(SCCn2c(N3CCN(Cc4ccccc4)CC3)nc3c2c(=O)[nH]c(=O)n3C)s1`, the figure is -0.0178.

Regarding `COc1cc2[nH]c(=O)n(CCC(=O)NCCC(C)C)c(=O)c2cc1OC`, the z-score was determined as 0.171. The molecule `CCC(C)C(NC(=O)c1ccccc1NC(=O)c1ccco1)C(=O)O` (configuration not stated) displayed a z-score of 0.0664.

Consider `COCCCNC(=O)c1ccc(Cn2c(=O)c3ccccc3n(Cc3ccccc3C#N)c2=O)cc1`, for which the z-score was -0.126. As for `CCCC(=O)Nc1ccc(Cl)c(NC(=O)CC)c1`, the figure is 0.149.

As to `COc1ccc2c(c1)[nH]c1c(=O)n(Cc3ccco3)cnc12`, the z-score is -0.0841. As for `O=C(O)CSc1cc(C(F)(F)F)nc(-c2ccccn2)n1`, the figure is -0.0962; as for `Cc1ccc(S(=O)(=O)Cc2ccc(C(=O)NCc3ccc4c(c3)OCO4)o2)cc1`, -0.326; as for `Nc1[nH]c(=S)[nH]c(=O)c1-c1ccccc1`, 2.2. As for `Cc1ccc(/C(O)=C2\C(=O)C(=O)N(CCCN(C)C)C2c2ccccn2)cc1` (configuration not stated), the figure is 0.768; as for `COC(=O)c1sc2nc(C)cc(-c3ccccc3)c2c1N`, -0.0404; as for `CCN1CCN(c2cc(-c3ccccc3)nc3cc(-c4cccc(F)c4)nn23)CC1`, -0.17.

Turning to `COc1ccc(OC)c(NC2c3ccccc3C(=O)N2Cc2ccc3c(c2)OCO3)c1` (configuration not stated), the z-score is -0.654.

For `N#Cc1ccccc1NC(=O)c1ccc(-c2ccccc2Cl)o1`, the z-score was determined as 0.136. For `Cc1ccccc1NC(=O)CCN1C(=O)CSC1=O` the value was 0.157. For `O=C(c1cc2ncc(Br)cn2n1)N1CCOCC1` the value was -0.556. As for `CN(C)S(=O)(=O)c1ccc(N2CCCC2)c(C(=O)NC(c2ccccc2)c2ccccc2)c1`, the figure is 0.126; as for `O=C(CN(C(=O)CSc1nc2ccccc2o1)c1cccc(F)c1)NC1CCCCC1`, -0.136. On to `O=C(NCCc1ccccc1F)C(=O)Nc1nccs1`, for which the z-score was -0.00522.

With `CCOC(=O)c1sc(NC(=O)CSc2nc3c(c(-c4ccc(OC)cc4)c2C#N)CCCC3)c(C#N)c1C`, the z-score was -0.231. For `Cc1ccc(N(CC(=O)N2CCc3ccccc32)S(=O)(=O)c2cccs2)cc1` the value was 1.1; for `Cc1ccc(C(=O)Nc2ccc(O)cc2C(=O)O)cc1C`, -0.288; for `Cc1ccc(CNC2=NCCCCC2)n1C`, 0.783. Consider `O=C(Nc1ccc2c(c1)CCC2)c1cccc(S(=O)(=O)Nc2ccccc2Cl)c1`, for which the z-score was -0.109. As for `COc1ccc(-c2cccc(C(=O)Nc3ccc(C)cc3)c2)cc1`, the figure is 0.0313; as for `C=CCNC(=O)CC(=O)N/N=C/c1ccc(F)cc1`, -0.18; as for `O=C(NCc1ccccc1)c1ccc2c(=O)n(CCCN3CCCC3=O)c(=S)[nH]c2c1`, active: 4.92. As for `CCOC(=O)C1=C(C)N=c2s/c(=C\c3ccc(OCC(=O)O)cc3)c(=O)n2C1c1ccc(OC(C)C)cc1` (configuration not stated), the figure is -0.361; as for `CC(C)(C)c1ccc(CSc2nnc(-c3ccccn3)n2Cc2ccco2)cc1`, -0.295.

`O=C(CSc1nc(-c2ccco2)cc(C(F)(F)F)n1)NCCc1ccccc1` displayed a z-score of 0.104.

`CS(=O)(=O)N(CC(=O)NCCSc1ccc(Cl)cc1)c1ccc2c(c1)OCO2`: the z-score came out at 0.176.

Take `CC1(C)C/C(=C(/C#N)C(N)=O)CCO1`: the z-score was -0.0474. As for `Cc1onc(-c2ccccc2Cl)c1C(=O)Nc1nc2c(s1)CCCC2`, the figure is -0.885; as for `COc1ccc(C(=O)N2CCCC(C(=O)N3CCCCCC3)C2)cc1` (configuration not stated), 0.0229. Take `COc1ccc(CCNc2ccc(S(=O)(=O)N3CCCC3)cc2[N+](=O)[O-])cc1`: the z-score was 0.132.

As to `CCCCn1c(NC(=O)c2ccccc2)c(C#N)c2nc3ccccc3nc21`, the z-score is -0.0234.
